The text below walks through data of PMC7819943, “Rice protein-binding microarrays: a tool to detect cis-acting elements near promoter regions in rice”.

Some of the results follow.

This assay addresses T1, OsWOX13 (Oryza sativa, UniProt Q5QMM3 1-267).
T1 sequence: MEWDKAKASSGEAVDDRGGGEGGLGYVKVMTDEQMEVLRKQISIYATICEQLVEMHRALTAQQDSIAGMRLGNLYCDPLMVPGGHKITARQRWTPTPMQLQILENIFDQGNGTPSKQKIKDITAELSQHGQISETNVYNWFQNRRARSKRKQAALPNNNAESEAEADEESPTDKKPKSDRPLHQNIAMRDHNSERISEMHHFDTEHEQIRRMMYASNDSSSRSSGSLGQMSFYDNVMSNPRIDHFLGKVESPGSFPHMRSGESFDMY
In words: protein-binding microarray (RPBM); PBS, 2% BSA, 51.3 ng/ul salmon testes DNA, 50 uM zinc acetate, 200 nM TF, 25 C, 1 h; high values mean tight binding. Particulars: protein: recombinant; tags: N-terminal polyhistidine and DsRed monomer fusion (pET32a); label: CyDye5-dUTP incorporated in the synthesized complementary strand; 3' TTTTT single-stranded linker to array surface; dsDNA, one strand shown. The method in brief: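 In PBS with 2% BSA, salmon testes DNA and 50 µM zinc acetate, 200 nM protein was incubated on a custom Agilent array at 25 °C for 1 h and then washed off. The array had been made double-stranded by primer extension with Cy5-dUTP and blocked with 2% BSA. The proteins were transcription factors fused N-terminally to polyhistidine and DsRed, expressed in E. coli BL21-CodonPlus and purified on Ni–NTA. The binding signal is per-feature fluorescence intensity (arbitrary units) from an Axon 4000B scanner.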
As to “CATGATTTACCACATTTCAGTTTTAGCACAGGACACATTTCGGAGTCACCTAGTGCAG”, the binding signal was 17800 fluorescence intensity (a.u.). Next, “GAAGCTTTGACAGATTGCCCTGACCTTTTGGTGTGTAACACGGAGTCACCTAGTGCAG”: 10700 fluorescence intensity (a.u.); “TGTATTTAATTAGTTTGACAGAAACAAATTTGCTCAGTTACGGAGTCACCTAGTGCAG”: 37100 fluorescence intensity (a.u.); “CTTAATCAAACTGAACTTTTGCCAACTTCCATTTTACAACCGGAGTCACCTAGTGCAG”: 4290 fluorescence intensity (a.u.). Next, “AAATTAGACAGGAAGTTCCGAACCTGGAATACAGGAATTTCGGAGTCACCTAGTGCAG”: 16800 fluorescence intensity (a.u.); “CATGATTAATTAAATATTAACGATCATAAATTTGAAAATTCGGAGTCACCTAGTGCAG”: 29300 fluorescence intensity (a.u.). Next, “ACGTAATTACTTCAAAATGATTTTACTGCTTCGCAATTACCGGAGTCACCTAGTGCAG”: 42000 fluorescence intensity (a.u.); “GTCAAACCAATTAACTATCGAACCGAGGGCCGCCGGTTCACGGAGTCACCTAGTGCAG”: 4450 fluorescence intensity (a.u.). As to “ACTTGTTTTACGTTCGGCTAATTAGCTGTTTGACCGTTTCCGGAGTCACCTAGTGCAG”, the binding signal was 6740 fluorescence intensity (a.u.). In the case of “TCTCAATCAACAGCCGTTCATTCACCCACCGAACAATCACCGGAGTCACCTAGTGCAG” it was 18900 fluorescence intensity (a.u.); in that of “ATTAAATAAATTGTAGATGATGTTGTATGCTTGTATGGGTCGGAGTCACCTAGTGCAG”, 20800 fluorescence intensity (a.u.).

For the sequence “ATCAGTGAAACTAATTAATATCCATATCTGCAATTCTCGTCGGAGTCACCTAGTGCAG”, the binding signal was 3290 fluorescence intensity (a.u.).

For the sequence “TCCCTTAATAGAGGGTTTCCAAACTATATGGGTGATTTGTCGGAGTCACCTAGTGCAG”, the binding signal is 4010 fluorescence intensity (a.u.). As for “GCTCACATCTATAACTAATCATTGATTCGGCATACTCATTCGGAGTCACCTAGTGCAG”, the binding signal is 13000 fluorescence intensity (a.u.). In the case of “GAAAATTATACTATGACAACAATATACTTGAGGTGATATCCGGAGTCACCTAGTGCAG”, the binding signal was 3320 fluorescence intensity (a.u.).

“AGTGACAGTCTGACAGACAATTCAGAGTGAACAACATTCTCGGAGTCACCTAGTGCAG”: the binding signal was 10500 fluorescence intensity (a.u.). Next, “ATTTTAAATAAATAATAATAATTTATGTCATCTAAACATACGGAGTCACCTAGTGCAG”: 7590 fluorescence intensity (a.u.). Next, “CTAAATTTAAACTTTTCACTCAATTGAAACTTTTCAAATTCGGAGTCACCTAGTGCAG”: 9300 fluorescence intensity (a.u.); “TCAATAACCATTAATTACCATCCCCACAGTCTTCTCGTGGCGGAGTCACCTAGTGCAG”: 10900 fluorescence intensity (a.u.). As for “TAAAATTAATTACTCCGCTCATATGGATACATCGCCGCCTCGGAGTCACCTAGTGCAG”, the binding signal is 31900 fluorescence intensity (a.u.). Next, “GGGATAATTGTTCAGTCTTAGGCGAGCACAGATTTATCATCGGAGTCACCTAGTGCAG”: 16100 fluorescence intensity (a.u.). For “GTATAGTCTCTCCAATCAAATTTATTTGATGTTGAAAAGGCGGAGTCACCTAGTGCAG”, the binding signal is 10700 fluorescence intensity (a.u.). In the case of “CCCAATTATGTTGGATCAATTTGACTATTTGACATATGCACGGAGTCACCTAGTGCAG” it was 12600 fluorescence intensity (a.u.).

For the sequence “CTGACTTTGTCATACGTCTATGATTTGCCACTGACTTTATCGGAGTCACCTAGTGCAG”, the binding signal was 4530 fluorescence intensity (a.u.).

As for “CTAGTGGATTGATTCCTGGTCTCTTATTGTCCCTATCATGCGGAGTCACCTAGTGCAG”, the binding signal is 31600 fluorescence intensity (a.u.).

In the case of “TTAATTAGTGGATAATGATGTGGCATCTTTGCATGTTAAGCGGAGTCACCTAGTGCAG”, the binding signal is 30300 fluorescence intensity (a.u.). Turning to “GTTTGAACCAAATCTTAATTGATAAATTGCACCGGAGCAGCGGAGTCACCTAGTGCAG”, the binding signal is 20200 fluorescence intensity (a.u.).

For “TTTGTGATTTTCCAAAGAATTAATCTTCGAGTGGGCTAAGCGGAGTCACCTAGTGCAG”, the binding signal is 3260 fluorescence intensity (a.u.). As for “CGCAACATGATATCTATCAGTGGAGGATTGAGTAGCTGCACGGAGTCACCTAGTGCAG”, the binding signal is 3780 fluorescence intensity (a.u.). Next, “GCTAACAAATTATATTCGGCAACTAGGTGCAAGTGTTGGGCGGAGTCACCTAGTGCAG”: 12000 fluorescence intensity (a.u.). In the case of “ACAGCAAGAAATTACTTTCAAATTGATCTGTGATGTGCCACGGAGTCACCTAGTGCAG” it was 6440 fluorescence intensity (a.u.); in that of “ATTTAATTATTACCACTAACATAATAGGAAGGTACAGGGGCGGAGTCACCTAGTGCAG”, 20800 fluorescence intensity (a.u.). Next, “AATATTTCTGATTGAGGATTTCATTTCCGATCTGTAGAAACGGAGTCACCTAGTGCAG”: 16100 fluorescence intensity (a.u.); “TCGTTTTAATTGACCACGTACTCAATCCGGTACTCTCCTTCGGAGTCACCTAGTGCAG”: 20600 fluorescence intensity (a.u.); “TGTTTGGATGATTTTATGGATGATCACTTCTCTTTATTTACGGAGTCACCTAGTGCAG”: 3280 fluorescence intensity (a.u.). Take “ATTGGATTGGTTAAAATTTTAATGTTAATTTATATAATTTCGGAGTCACCTAGTGCAG”: the binding signal is 12200 fluorescence intensity (a.u.). Next, “ACACCATCACGTGAGTTGATTTGCCCTGATTTTCGAAGATCGGAGTCACCTAGTGCAG”: 17500 fluorescence intensity (a.u.); “TTTTGATTTGAGAAAATCGCGTGTTCTTTTGGAGGGAAGACGGAGTCACCTAGTGCAG”: 11400 fluorescence intensity (a.u.). Consider “CAAGTGTGAATGCCAATCATAGCTCGATCGGATTGGATTCCGGAGTCACCTAGTGCAG”, for which the binding signal was 24200 fluorescence intensity (a.u.). Next, “AGTAAACTGGTTTTCAGAATTGCAGCACTAGAGTGGTGTGCGGAGTCACCTAGTGCAG”: 5260 fluorescence intensity (a.u.). In the case of “TAAATTTGAATATAAATTTCGATGGAATAACTTAGACTTGCGGAGTCACCTAGTGCAG”, the binding signal was 4900 fluorescence intensity (a.u.). In the case of “ACTTAAAGCGATAATTATTTTAGGATGGATGTAGTATGTACGGAGTCACCTAGTGCAG” it was 3510 fluorescence intensity (a.u.).
